Data on 13 molecules can be found in patent US7517523B2, “Anti-MIF antibodies” (Cytokine PharmaSciences, Inc., priority 1993, dated 2009).

Common to all, as to format: cell-based, mouse
The subject of assay [1] is RAW 264.7 macrophages. Put plainly: MIF secretion by RAW 264.7 macrophages stimulated with LPS or cytokines (Western blotting). The conditions noted are these: 12 h; for MIF production: 1 or 10 ng/ml. The method, then:
After 3 h of incubation at 37° C. in a humidified atmosphere with 5% CO2, nonadherent cells were removed and wells were washed twice with RPMI/1% FBS. Cells then were incubated for 12 h with LPS (at concentrations ranging from 1 pg/ml to 1 μg/ml) or with cytokines (1 or 10 ng/ml for TNFα, IL-1β, and IL-6, and 10, 100 or 1000 IU/ml for IFNγ) diluted in RPMI/1% FBS. For time-course experiments, conditioned media of parallel cultures were removed at 3, 6, 9, 12 and 15 h intervals after LPS stimulation. […] Cells were incubated for 12 h either with LPS or with IFNγ plus LPS. When co-stimulated with IFNγ and LPS, cells were first incubated for an hour with IFNγ (100 IU/ml) before addition of LPS at the indicated concentrations. At the end of each experiment, cell-culture media were collected, centrifuged (10 min at 800 g), and supplemented with PMSF (1 mM). Supernatants then were concentrated 10-fold by membrane filtration (10 kD cut-off) (Centricon-10, Amicon, Beverly, N.Y.). Cellular RNA was extracted from adherent cells.
For Western blotting, samples were resolved on 18% SDS polyacrylamide gels under reducing conditions and transferred onto nitrocellulose membrane (Schleicher and Schuell, Keene, N.H.) at 50 V and 150 mA for 16 h. Membranes were blocked with 500 mM NaCl, 50 mM Tris-Base, pH 7.5 buffer containing 5% nonfat dry milk and 0.05% Tween-20 and incubated first with polyclonal rabbit anti-rMIF serum and then with horseradish peroxidase-conjugated igoat anti-rabbit IgG antibody (each diluted 1:1000 in 500 mM NaCl, 50 mM Tris-Base, pH 7.5 buffer with 1% BSA and 0.05% Tween-20). […] Incubations were for 1 h each. MIF was visualized by development with chloronaphthol/H2O2 or with TMB substrate. Serum MIF bands were quantified by laser densitometry (Shimadzu FDU-3, CS-9000U, Braintree, Mass.). Faint densitometric signals in the MIF region were detected in most sera prior to LPS administration (0 h). […] Each plotted point is the mean±SEM of individual sera from 2 to 5 animals.

For assay [2], the system named is RAW 264.7 macrophages. Put plainly: Steroid-induced MIF secretion by RAW 264.7 macrophages. Particulars: for Range of Steroid Concentrations Inducing MIF in RAW 264.7 Macrophages: 12-15 h; for MIF secretion by murine macrophages after stimulation: RAW 264.7 macrophages and/or elicited peritoneal macrophages.
Assay [3] has as its system RAW 264.7 macrophages. The assay can be described thus: MIF-induced secretion of TNFα by RAW 264.7 macrophages (L929 cell cytotoxicity). Particulars: 12-14 h, difference to non-stimulated control, mean ± SEM. The protocol: Cells were incubated for 12-14 hours with various doses of MIF diluted in RPMI/1% FBS. At the end of each experiment, cell culture media were collected, centrifuged (10 min at 800 g), and supplemented with 1 mM PMSF. MIF-induced TNFα activity was measured immediately afterwards.
Cells (4×10^6/well) were processed as described above and stimulated for 12 h with rMIF at specified concentrations ranging from 100 pg/ml to 1 μg/ml. At 1 μg/ml of rMIF, LPS contamination was 9 pg/ml as assessed by Limulus assay. To neutralize this minute amount of LPS, rMIF was preincubated for 1 h at 37° C. with polymyxin B (1 μg/ml). MIF-induced TNFα activity in cell-culture supernatant was quantitated by L929 cell cytotoxicity (Wolpe et al., 1988, J. Exp. Med. 167: 570).

For the molecule TNFα: recombinant murine TNFα, the “Lowest concentration effective in inducing MIF secretion” value in the assay with RAW 264.7 macrophages [1] amounted to 1 ng/mL.
Turning to `CC#C[C@]1(O)CC[C@H]2[C@@H]3CCC4=CC(=O)CCC4=C3[C@@H](c3ccc(N(C)C)cc3)C[C@@]21C` [RU-38486 (mifepristone), mifepristone], in the assay on RAW 264.7 macrophages [2], the “Range of Steroid Concentrations Inducing MIF in RAW 264.7 Macrophages” value (from here on “Range”) is reported as 10^−8 to 10^−14 M and the “MIF secretion by murine macrophages after stimulation” value (“MIF secretion by murine macrophages” below) is “secreted”.
For `C[C@]12CCC(=O)C=C1CC[C@@H]1[C@@H]2[C@@H](O)C[C@]2(C=O)[C@@H](C(=O)CO)CC[C@@H]12` [Aldosterone], in that order: 10^−10 to 10^−14 M and “secreted”.
For `C[C@]12CC[C@H]3[C@@H](CCC4=CC(=O)CC[C@@]43C)[C@@H]1CC[C@@H]2O` [Testosterone], in that order: 10^−6 to 10^−14 M and “secreted”.
As to `C[C@@H]1C[C@H]2[C@@H]3CCC4=CC(=O)C=C[C@]4(C)[C@@]3(F)[C@@H](O)C[C@]2(C)[C@@]1(O)C(=O)CO` [Dexamethasone], the “Range” value with RAW 264.7 macrophages [2] is on record as 10^−8 to 10^−14 M.
Take IFNγ: recombinant murine IFNγ: the “Lowest concentration effective in inducing MIF secretion” value in the assay on RAW 264.7 macrophages [1] is given as 10 IU/ml.
`C[C@]12CCC(=O)C=C1CC[C@@H]1[C@@H]2[C@@H](O)C[C@@]2(C)[C@H]1CC[C@]2(O)[C@@H](O)CO` [4-pregnene-11β,17α,20α,21-tetrol-3-one]: in the assay with RAW 264.7 macrophages [2], the “Range” value was 10^−10 to 10^−14 M and the “MIF secretion by murine macrophages” value is recorded as “secreted”.
For `CC(=O)[C@H]1CC[C@H]2[C@@H]3CCC4=CC(=O)CC[C@]4(C)[C@H]3CC[C@]12C` [Progesterone], in that order: 10^−4 to 10^−12 M and “secreted”.
With `C[C@]12CC[C@@H](O)C[C@H]1CC[C@@H]1[C@@H]2[C@@H](O)C[C@@]2(C)[C@H]1CC[C@]2(O)C(=O)CO` [5β-Pregnane-3α,11β,17α,21-tetrol-20-one], in the assay with RAW 264.7 macrophages [2], the “Range” value is 10^−8 to 10^−14 M and the “MIF secretion by murine macrophages” value is on record as “secreted”.
Turning to `C[C@]12CCC(=O)C=C1CC[C@@H]1[C@@H]2[C@@H](O)C[C@@]2(C)[C@H]1CC[C@]2(O)C(=O)CO` [Hydrocortisone], in the assay on RAW 264.7 macrophages [2], the “Range” value is reported as 10^−8 to 10^−12 M and the “MIF secretion by murine macrophages” value was “secreted”.

B1: rhuMIF: recombinant human MIF (Jurkat T-cell cDNA) expressed in E. coli from pET11b (protein)
chain: PMFIVNTNVPRASVPDGFLSELTQQLAQATGKPPQYIAVHVVPDQLMAFGGSSEPCALCSLHSIGKIGGAQNRSYSKLLCGLLAERLRISPDRVYINYYDMNAANVGWNNSTFA
As for B1, the “Secretion of TNFα induced by MIF” value in the assay on RAW 264.7 macrophages [3] (MIF 0.1 μg/ml) amounted to 2.9 ± 2.4 ng/mL; in the assay on RAW 264.7 macrophages [3] (MIF 1 μg/ml), 3.4 ± 2.8 ng/mL; with RAW 264.7 macrophages [3] (MIF 10 μg/ml) it was 3.9 ± 2.8 ng/mL.

B2: IL-6: recombinant murine IL-6 (protein, UniProt P08505 25-211, looked up)
Interleukin-6: FPTSQVRRGDFTEDTTPNRPVYTTSQVGGLITHVLWEIVEMRKELCNGNSDCMNNDDALAENNLKLPEIQRNDGCYQTGYNQEICLLKISSGLLEYHSYLEYMKNNLKDNKKDKARVLQRDTETLIHIFNQEVKDLHKIVLPTPISNALLTDKLESQKEWLRTKTIQFILKSLEEFLKVTLRSTRQT
As for B2, the MIF production entry in the assay on RAW 264.7 macrophages [1] is reported as “not induced”.

B3: IL-1β: recombinant murine IL-1β (protein, UniProt P10749 118-269, looked up)
Interleukin-1 beta: VPIRQLHYRLRDEQQKSLVLSDPYELKALHLNGQNINQQVIFSMSFVQGEPSNDKIPVALGLKGKNLYLSCVMKDGTPTLQLESVDPKQYPKKKMEKRFVFNKIEVKSKVEFESAEFPNWYISTSQAEHKPVFLGNNSGQDIIDFTMESVSS
In the case of B3, the MIF production result with RAW 264.7 macrophages [1] is on record as “not induced”.
